From the RNAGym collection of RNA variant scans (doi:10.7554/elife.90254) come the findings set out here.

Read counts are not given, so values of variants with three or more changes are uncertain.

B1: LINE1-mini (parent)
chain: GGCAGAGCUCAACACAGCGUGGCAAAGUGGCUGUGGCUAGACUGCC

Variants of B1 are the subject of this series. Kind of series: self-cleavage, relative activity (ratio to wild type); higher = more cleavage; in vitro, sequencing; the parent is a self-cleaving ribozyme.
In the case of A6C G7A G17U G44C, the self-cleavage was 0.04.
With A6C C10A G19A G21C, the self-cleavage was found to be 0.16.
For the variant A6C G7A A14G U38A, the self-cleavage worked out at 0.03.
For the variant G5U G30U U38A, the self-cleavage stood at 0.05.
For A6C A11G G19C G21U C31G, the self-cleavage was determined as 0.02.
Then G5U U9G C18G, with 0.05.
For the variant A6C C8G C18G, the self-cleavage came out at 0.02.
For the variant G5U U9A G33A, the self-cleavage amounted to 0.32.
As for A6C C18A G19A G33A A39C G44U, the self-cleavage came out at 0.02.
As for G5U G40C C46G, the self-cleavage stood at 0.18.
Regarding G5U U9A A26C, the self-cleavage stood at 0.02.
Under A6C A12C G27C G29A G36U stands 0.02.
Under G5U U9G A12C G17C U28C C45U stands 0.01; under A6C C8A C31A, 0.26; under A6C C10A A25C, 0.02.
For A6C G7A C8G G29U, the self-cleavage came to 0.07.
Turning to G5U G22A A25C G33U, the self-cleavage is 0.08.
In the case of A6C G7A U9A G36U C37A, the self-cleavage was 0.1.
Then A6C C8G A39U C42G, with 0.06; and G5U G21U A26G G30C C31G, with 0.06; and A6C G7A A24C G44A, with 0.11.
Consider G5U U28C U32G, for which the self-cleavage stood at 0.05.
For G5U U28C U32C, the self-cleavage was 0.01.
As to G5U G33C C46U, the self-cleavage stood at 0.03.
For the variant G5U G35C G40C A41U, the self-cleavage was found to be 0.12.
In the case of G5U G22A G29A, the self-cleavage worked out at 0.
On to G5U G22A G29U, for which the self-cleavage amounted to 0.06.
Then G5U U20G A25G, with 0.09; and G5U U9C C13A G36C G40U C42A, with 0.01.
For the variant G5U G30A U34A, the self-cleavage amounted to 0.05.
Consider G5U U9C C18G A41U, for which the self-cleavage is 0.08.
G5U G21A U38C: the self-cleavage was found to be 0.04.
For G5U G21U C31U, the self-cleavage turned out to be 0.04.
Regarding A6C C8G C46A, the self-cleavage came out at 0.
As to A6C A24C C46U, the self-cleavage is 0.25.
For the variant G5U U9C G17C U20A G27U, the self-cleavage is 0.01.
Regarding G5U G27C C31G C45U, the self-cleavage amounted to 0.01.
Consider G5U U20C G30A G35U G40U, for which the self-cleavage is 0.01.
Under G5U G27A U43A stands 0.01; under A6C C13U G27C C31A, 0.02.
Consider G5U U32A U38C, for which the self-cleavage amounted to 0.07.
Turning to A6C C8G A39C, the self-cleavage is 0.06.
A6C C10G A11G G27A: the self-cleavage worked out at 0.02.
For G5U U9G C37U A39U C42G, the self-cleavage came to 0.05.
Under A6C G7A C15G C37A U38A stands 0.03; under A6C A12U C23A G30C, 0.11.
Take A6C G7A A26U A41C: the self-cleavage came to 0.14.
On to A6C G7A A12C, for which the self-cleavage was 0.02.
Under G5U G21U C45G stands 0.04; under G5U G22A C46U, 0.05; under A6C A25U G40U, 0.3.
For the variant A6C A14G U28A C46G, the self-cleavage is 0.23.
For the variant G5U U32A G36C, the self-cleavage was 0.05.
Then G5U U9A A11C G21C, with 0.06; and G5U G22U C42A, with 0.3; and G5U U9A A14U C31U U38A A41C C42A, with 0.02.
Then A6C C13G U38A A41G, with 0.12; and A6C C18A G30U, with 1.39.
With A6C C18A G30A, the self-cleavage came out at 0.13.
For the variant A6C A12G C18A G40C, the self-cleavage amounted to 0.08.
In the case of A6C A11U C15G U20G C23U, the self-cleavage was found to be 0.02.
As for A6C C8U G21U, the self-cleavage came to 0.41.
Then A6C C8U G22C G29C U43G C46U, with 0.
As to A6C C13A G30U, the self-cleavage came out at 0.09.
For the variant G5U U9G C23U A26C G30A C31U G36C C45A, the self-cleavage is 0.29.
Then A6C C10U A16C G29A U34G, with 0.03; and A6C C10U G30U C37A C42G, with 0.01; and A6C A14U C18A, with 0.02.
With A6C G7A C8G G19A, the self-cleavage was determined as 0.03.
In the case of G5U U9C C31U U32G G35A A39G, the self-cleavage was 0.03.
Regarding A6C C10U G17C G30U U38C G44U, the self-cleavage was found to be 0.02.
With G5U G22A G33U, the self-cleavage amounted to 0.03.
With G5U U28G G33U G44C C45G, the self-cleavage turned out to be 0.04.
As to A6C C37A G40U C46A, the self-cleavage is 0.07.
As for A6C C23G G33C G35C, the self-cleavage turned out to be 0.04.
Take A6C A26G C42G U43G: the self-cleavage is 0.02.
Consider A6C C13A G22U C45U, for which the self-cleavage was determined as 0.06.
Under G5U G22A G36A C37U stands 0.01; under G5U G29A C31U U34G, 0.02; under G5U G22C A25U A39G, 0.
Then A6C C10A A14G G17U, with 0.16.
Then G5U U20G G44U, with 0.02; and G5U G21A C37U C45G, with 0.05; and G5U G33U A41U, with 0.05.
As to A6C A11C C18A G40A, the self-cleavage was 0.03.
In the case of G5U G35C A39G, the self-cleavage stood at 0.05.
Under G5U G44A C45G stands 0.05.
Take A6C C13U C31U U32A: the self-cleavage came to 0.01.
Consider A6C C15A G36C G40A, for which the self-cleavage turned out to be 0.03.
Under A6C C13U G17U stands 0.17; under G5U G35U C45A, 0.05; under G5U U20G C45G, 0.13.
As to A6C A11U G17C C37A U38A, the self-cleavage was found to be 0.01.
On to G5U G21A C23U A25U C46U, for which the self-cleavage came out at 0.08.
Turning to A6C A12G A16U A25U G27C G33U, the self-cleavage came to 0.03.
With A6C C18A U32G U43A, the self-cleavage was 0.01.
Take A6C A12G A14U: the self-cleavage was 0.05.
With A6C G7U A14G C37U, the self-cleavage stood at 0.02.
A6C C15U G35U: the self-cleavage was 0.01.
Take G5U U28A G40A: the self-cleavage was determined as 0.06.
As to A6C A11G G33A U38A, the self-cleavage came out at 0.01.
Take A6C A26C G40C: the self-cleavage stood at 0.11.
Regarding G5U U9A U43A, the self-cleavage is 0.16.
A6C A25G G35A A41C: the self-cleavage worked out at 0.13.
As for A6C A14U G19U, the self-cleavage amounted to 0.44.
In the case of A6C A12C C13A A16C G29U C37U A41C, the self-cleavage was 0.04.
For G5U G35U U38A, the self-cleavage is 0.06.
As to G5U G33U C42U, the self-cleavage came to 0.09.
Under A6C C18U G33A U34G A41U U43A stands 0.05.
Consider G5U U9A C15U, for which the self-cleavage amounted to 0.06.
On to G5U U32G G40U, for which the self-cleavage came to 0.
Then A6C A26C A41U C42A C45G, with 0; and G5U U9G U32G A39G, with 0.07.
Then A6C C10A A16C U28C C37U, with 0.01; and A6C A11U G21A G30A, with 0.11.
Then G5U U20A C23A C31U, with 0.02; and A6C C18G U20G G35A, with 0.05; and G5U U20C C45A, with 0.08.
For A6C A14C U20C G22A A25U U43C, the self-cleavage came to 0.02.
For A6C A25U A39U, the self-cleavage worked out at 0.3.
Then A6C A12G G19U C37U A41C, with 0.01; and G5U U20C C23U G27A U28A C31G U34A, with 0.01.
Then A6C C15A A25U G36C, with 0; and G5U U9A G21U A25C C42U, with 0.08.
Then G5U G36C G40C, with 0.02; and G5U U9A G36A, with 0.09; and A6C C10U G22A A26G G27C G44A, with 0.06.
Regarding A6C C18G U43A, the self-cleavage was 0.02.
Then G5U G22A G33A G35A, with 0.05; and A6C A26U G27C C42G, with 0.06.
As for G5U G22A G36C C45G, the self-cleavage was 0.01.
For the variant A6C C15A G19U U20A C46A, the self-cleavage came to 0.03.
Under A6C C10A G36C U38C stands 0.02; under A6C A14U U32A G35U C42A U43G, 0.03.
Then A6C A12C G19U G36U, with 0.11; and A6C G7A G29C C31U C45A C46A, with 0.02; and A6C C13U C42U, with 0.21.
As to A6C C15A G17A G40U, the self-cleavage came out at 0.04.
Take A6C A25C U28A G33U C46A: the self-cleavage came out at 0.02.
As for A6C C13A A16G G29C C31U, the self-cleavage was found to be 0.
Consider A6C G7A C13A C18A U32A, for which the self-cleavage is 0.04.
As to G5U G22A A25U, the self-cleavage was determined as 0.07.
With A6C C23U A25G G35A G44A, the self-cleavage was found to be 0.05.
Turning to A6C C10U A11G, the self-cleavage worked out at 0.05.
Under A6C C8U C10U C15A G17C A39U stands 0.02.
Take G5U U9A G21U G30C G40C: the self-cleavage was determined as 0.01.
As to A6C G7U A14C G27U, the self-cleavage is 0.01.
Turning to A6C A16U A26C U28G U32C, the self-cleavage is 0.01.
Then A6C A39U G44A, with 0.06.
Consider G5U G29C G36U A41G, for which the self-cleavage came out at 0.02.
Turning to G5U U32G U43C, the self-cleavage stood at 0.04.
In the case of A6C A11U U28A G29A G30A, the self-cleavage worked out at 0.1.
G5U G21U C42A: the self-cleavage was 0.45.
Then A6C C10A G22C, with 0; and G5U G30A C45G C46U, with 0.19.
In the case of A6C C42G C45G, the self-cleavage came to 0.01.
Under A6C C18A G19U C23U stands 1.69; under A6C C13G A24C G33A G44U, 0.05.
In the case of A6C C18U C31A, the self-cleavage was 0.02.
For the variant A6C C8G G19C G21C U34C, the self-cleavage stood at 0.02.
A6C C13A A26U: the self-cleavage was determined as 0.32.
In the case of G5U G35C U38G, the self-cleavage was found to be 0.1.
With A6C G7A A11G A26G, the self-cleavage was 0.01.
For A6C A14U G35A A41G C45U, the self-cleavage is 0.05.
Under A6C A16C G21A G22C G40A stands 0.01; under A6C C18G G40A, 0.04; under A6C A11G C13G, 0.02.
